According to PubChem BioAssay AID504706 (National Center for Advancing Translational Sciences (NCATS), 2011):
In all, about 320,000 compounds went through this assay and about 200 (0.062%) were called active. Inconclusive results, whose numbers are uncertain, are shown with a selection of clear calls. Calls follow the shape of the dose curve; as a rule, active = well fitted activation curve with a large enough effect; inconclusive = small, poorly fitted or top-dose-only effect; inactive = no such curve, though single readings can be large or run the other way. Potencies of inconclusive entries are left out as doubtful fits.

Experiment: qHTS assay for re-activators of p53 using a Luc reporter; also: nearly all actives have a fitted effect of over 45% in size
Settings: H1299 p53-A138V BP100-luciferase reporter, luminescence, 24 h; series mostly up to 92.2 µM
Method in brief: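 H1299 (p53-null), stable ts p53-A138V + BP100-Luc; 1000 cells/well, Opti-MEM/10% FBS; cpd 4 pt, 1:5; 24 h, 37 deg C, 5% CO2; detection reagent 10 min RT; luminescence.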
Potency is read from the fitted curve at half-maximal effect; tags tell the direction and shape of the fitted curve.

SMILES | Potency
CNC(=O)N(O)C1N(NC(=O)Nc2cccc3ccccc23)C(=S)SC1(C)C (stereo not given) | inactive
Fc1ccc(-c2nnc(-c3ccc(Cl)cc3)o2)cc1 | inconclusive [activator, full curve, poor fit]
COc1ccc(OCc2cccc(C(=O)Nc3ccc(CN4CCCCC4)cc3)c2)cc1 | inconclusive [activator, full curve, poor fit]
Cc1ccc(NC(=O)C(OC(=O)c2ccccc2Cl)c2ccccc2)cc1Cl (stereo not given) | inconclusive [activator, single point]
O=C(Nc1ccc(SC(F)F)cc1)C12CCC(CC1)C2 | inconclusive [activator, single point]
Cc1ccc2nc(N3C(=O)C(O)=C(C(=O)c4ccc(C)o4)C3c3ccco3)sc2c1 (stereo not given) | inconclusive [activator, partial curve, poor fit]
Cc1cc(=O)[nH]c(N/N=C/c2ccccc2C(F)(F)F)n1 | inactive
Cc1c(Cl)c(-c2n[nH]c(=S)n2-c2ccc(F)cc2)nn1C | inconclusive [activator, single point]
Cc1cc(/C=C(\C#N)C(=O)NCc2ccco2)c(C)n1C1CCCC1 | inconclusive [activator, partial curve, poor fit]
CCOC(=O)C(C)On1c(-n2nc(C)cc2C)nc2ccccc2c1=O (stereo not given) | inactive
NS(=O)(=O)c1cccc(NC(=O)CCSc2ccccc2Cl)c1 | inconclusive [activator, partial curve, poor fit]
N/C(=N\OC(=O)CCC1CCCC1)c1cccnc1 | inconclusive [activator, partial curve, poor fit]
Cc1ccc(NC2=Nc3ccccc3CS2)cc1 | inconclusive [activator, full curve, poor fit]
CN1Cc2cc(C(=O)c3ccccc3O)cnc2NC1=O | inconclusive [activator, partial curve, poor fit]
Cc1ccc(NC(=O)CCC(=O)c2cccs2)cc1F | inactive
Cc1cccc(Nc2ncccc2C(=O)O)c1C | inconclusive [activator, single point]
Cc1ccc(NC(=O)c2nnn(-c3ccc4c(c3)OCCO4)c2N)cc1 | inconclusive [activator, partial curve, poor fit]
Brc1ccccc1C1N=C(c2ccccc2)NO1 (stereo not given) | inconclusive [activator, full curve]
CCc1nnc(NC(=O)C2Cc3ccccc3CN2S(=O)(=O)c2cccs2)s1 (stereo not given) | inconclusive [activator, partial curve, poor fit]
O=C(/C=C/c1ccc(O)c(O)c1)c1ccccc1O | inconclusive [activator, full curve, poor fit]
Cc1c([N+](=O)[O-])nnn1-c1cc(Cl)cc(Cl)c1 | inactive
COc1ccc(C(=O)N2c3ccccc3C(=O)OC2c2ccc3c(c2)OCO3)cc1 (stereo not given) | inconclusive [activator, partial curve, poor fit]
Cn1cccc1-c1nc2ccc(NC(=O)c3ccco3)cc2[nH]1 | inactive
CCOC(=O)c1c(Nc2ccc(Cl)cc2)sc(/C=C2\C=Nc3ccccc32)c1O | inactive

SMILES | Potency
CCOC(=O)c1[nH]n(-c2ccc(Cl)cc2)c(=O)c1C | inactive
Oc1c(Br)cc(Br)cc1C=Nc1ccc2[nH]ncc2c1 | inactive
O=C(Nc1cccc(F)c1)c1ccc(-c2ccccc2C(F)(F)F)o1 | inconclusive [activator, partial curve, poor fit]
COC(=O)c1ccc(N2C(=O)CC(SCCN)C2=O)cc1 (stereo not given) | inconclusive [activator, partial curve, poor fit]
O=C(CNS(=O)(=O)c1ccc(Br)cc1)NCc1cccnc1 | inactive
CC(C)(C)OC(=O)N1CCC(C(=O)NCC2CCCO2)CC1 (stereo not given) | inconclusive [activator, single point]
O=C(/C=C/c1ccc(Cl)cc1Cl)N1CCN(c2ccc([N+](=O)[O-])c(N3CCOCC3)c2)CC1 | inactive
COc1cccc(/C=N/Nc2cc(-n3nc(C)cc3-c3ccccc3)ncn2)c1O | inconclusive [activator, full curve, poor fit]
CCc1ccc2oc(-c3cc(N)cc(C)c3O)nc2c1 | inconclusive [activator, partial curve, poor fit]
CCOC(=O)Cn1c(C)nc2ccccc21 | inactive
COc1cc(-c2nnn(CC(=O)NC3CCS(=O)(=O)C3)n2)ccc1OCc1ccccc1 (stereo not given) | inactive
COc1ccc(-c2oc(=O)c3cc(OC)c(OC)cc3c2C#CCCCO)cc1 | inactive
Cc1ccc(S(=O)(=O)Nc2ccnc3ccccc23)cc1 | inactive
O=C(CCCN1C(=O)/C(=C/c2ccc(F)cc2)SC1=S)NC1CCS(=O)(=O)C1 (stereo not given) | inconclusive [activator, full curve, poor fit]
CCOC(=O)N1CCN(C(=O)c2cc(COc3c(F)cccc3F)on2)CC1 | inconclusive [activator, full curve, poor fit]
Oc1ccc(Cl)cc1C=NCCc1ccccc1 | inconclusive [activator, single point]
CC12CCC(C(=O)N(CCCCN3CCN(c4ccccn4)CC3)C1=O)C2(C)C (stereo not given) | inconclusive [activator, single point]
CCS(=O)(=O)N1Cc2ccccc2CC1C(=O)Nc1nc2ccc(C)cc2s1 (stereo not given) | inconclusive [activator, single point]
O=C(c1cc2ccccc2c(=O)o1)N1CCCCCC1 | inconclusive [activator, partial curve, poor fit]
Cc1n[nH]c(=O)nc1N/N=C/c1cccs1 | inconclusive [activator, partial curve, poor fit]
COc1ccc(NC(=O)CN(C)C(=O)c2ccc3c(c2)NC(=O)CS3)cc1 | inconclusive [activator, full curve, poor fit]
COc1ccc(SC[C@H](Cc2ccccc2)N2CC[C@@H](O)CCC2=O)cc1 | inconclusive [activator, single point]
Cc1ccc(C(=O)CNc2cccc(Cl)c2)cc1 | inconclusive [activator, full curve, poor fit]
CCN(CC)C(=O)Oc1ccc2ccccc2c1Br | inactive

SMILES | Potency
Nc1nc2ccccc2n1CCOc1ccccc1Cl | inactive
O=C(c1ccc2oc(CCCc3ccccc3)nc2c1)N1CCCC1 | inconclusive [activator, partial curve, poor fit]
COc1ccc(-n2nc(C(=O)NCC(=O)N3CCCCCC3)c3ccccc3c2=O)cc1 | inconclusive [activator, full curve, poor fit]
COc1ccc(Nc2nc(N3CCCC3)nc3ccccc23)c(OC)c1 | inactive
COc1ccc(C2=NO[C@@H]3C(=O)N(c4ccc5c(c4)OCCO5)C(=O)[C@H]23)cc1OC | inconclusive [activator, single point]
Fc1ccccc1CNc1ccc(Cl)c(Cl)c1 | inconclusive [activator, full curve]
CC(C)C(=O)Nc1ccc(NC(=O)c2ccco2)cn1 | inconclusive [activator, partial curve, poor fit]
CSc1cccc(NC(=O)Nc2ccccc2)c1 | inconclusive [activator, partial curve, poor fit]
C=CCNC(=O)/C=C/c1ccc(C(C)C)cc1 | inconclusive [activator, full curve]
COc1ccc(C(=O)/C=C/Nc2ccc(S(=O)(=O)Nc3onc(C)c3C)cc2)cc1 | inconclusive [activator, partial curve, poor fit]
CN1N=C2c3ccccc3CCC2C1c1ccc(Cl)cc1 (stereo not given) | inconclusive [activator, single point]
COC(=O)c1cccc(Nc2c3c(nc4ccccc24)CCC3)c1 | inactive
COc1ccc(-c2cc3ncnc(Cl)c3s2)cc1 | inconclusive [activator, full curve, poor fit]
CCOc1ccc(-c2ccc(SCC)nn2)cc1 | inactive
C/C(CC(=O)Nc1cc(C)ccn1)=N\NC(=O)c1cccc(C)c1 | inconclusive [activator, full curve, poor fit]
CC1CCC/C(=C\Nc2ccc(C(=O)O)c(O)c2)C1=O (stereo not given) | inconclusive [activator, partial curve]
CCOC(=O)c1csc(NC(=O)c2ccccc2)n1 | inconclusive [activator, full curve, poor fit]
CC(Cc1cccnc1)NC(=O)c1cc(COc2c(F)cccc2F)on1 (stereo not given) | inactive
O=C(Nc1ccc2nc(-c3ccco3)c(-c3ccco3)nc2c1)N1CCCCCC1 | inconclusive [activator, single point]
Cc1cc(-n2c(C)cc(C(=O)COc3cccnc3[N+](=O)[O-])c2C)no1 | inconclusive [activator, partial curve, poor fit]
COc1ccc(CN(C(=O)c2oc3ccc(F)cc3c2C)C2CCS(=O)(=O)C2)cc1 (stereo not given) | inactive
O=C(CSc1nnc(C2CC2)n1C1CC1)c1ccc(Br)s1 | inconclusive [activator, partial curve, poor fit]
